Results reported in PubChem BioAssay AID1347417 (National Center for Advancing Translational Sciences (NCATS), 2020).
“And” between values parts separate entries of the source, which are not always exact repeats. Identical values can stand only once. The whole screen tested about 120,000 compounds, of which about 5,300 (4.4%) were called active. This list was built around the results that the source calls inconclusive (neither active nor inactive); the mix of calls is not that of the screen. The call rests on the fitted dose curve; in most records, active means well fitted inhibition curve with a large enough effect; inconclusive means small, poorly fitted or top-dose-only effect; inactive means no such curve, though single readings can be large or run the other way. Potencies beside an inconclusive call are fits to weak or partial responses and may not hold up.

Experiment: qHTS Primary assay for Inhibitors of Plasmodium falciparum Dd2 growth in vitro; further: nearly all actives have a fitted effect of over 65% in size;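 on activity, negative = inhibition: plate controls were DMSO vehicle for no effect and reference drug for full effect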
Settings: P. falciparum Dd2 growth, SYBR Green, 72 h; activity, negative = inhibition: at 28.9 µM (top of the series) unless noted; series mostly up to 28.9 µM
How it was run: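 Infected erythrocytes (Dd2, 0.3% parasitemia, 2.5% hematocrit final) are added to compound in RPMI-1640/Albumax II medium, grown 72 h at 37C in low oxygen, then lysed with saponin/Triton-X containing SYBR Green and read by fluorescence.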
Potency means the concentration at half of the fitted maximal effect; tags describe the fitted curve by direction and shape.

Row | Compound | Potency | activity, negative = inhibition | outcome
1 | OC1CC(c2cc(N3CCN(c4nsc5ccccc45)CC3)ncn2)C1 (stereo not given) | inconclusive: 17.8 µM [inhibitor, single point] |  | 
2 | Cc1ccc(CN2C[C@@H](CO)[C@H](c3nc(C)no3)C2)cc1 | inconclusive: 5.01 µM [inhibitor, partial curve, poor fit] |  | 
3 | CCOc1ccc2c(n1)CCN(C(=O)c1sccc1C)C2 | inconclusive: 10 µM [inhibitor, partial curve, poor fit] |  | 
4 | CC(=O)c1ccc(NC(=O)O[C@@H]2CO[C@H]3[C@@H]2OC[C@@H]3NC(=O)COc2ccccc2)cc1 | inconclusive: 15.8 µM [inhibitor, partial curve] |  | 
5 | O=C(c1ccoc1)N1CCCN(CCc2ccccc2)c2ccccc21 | inconclusive: 17.8 µM [inhibitor, single point] |  | 
6 | COc1cc(=O)n2c(c1C(=O)Nc1cc(F)ccc1C)CCCC2 | inconclusive: 3.98 µM [inhibitor, single point] |  | 
7 | COc1ccc(-c2cc(N3CCCN(C(=O)c4ccccc4Cl)CC3)n[nH]2)cc1 | inconclusive: 2 µM [inhibitor, single point] |  | 
8 | COc1cccc(NC(=O)N2[C@@H]3CC[C@H]2CC(NC(=O)c2cnc(C)cn2)C3)c1 (stereo not given in full) | inconclusive: 1.58 µM [inhibitor, partial curve, poor fit] |  | 
9 | O=c1c2cc3c(cc2nc2sc(Nc4ccc(F)c(Cl)c4)nn12)OCO3 |  | inactive: 15.6% | 
10 | CN(Cc1cc2ccccc2s1)C(=O)c1cc(CN2CCCC(O)C2)on1 (stereo not given) |  | inactive: -19.4% | 
11 | Cc1ccc(NC(=O)c2oc3ccccc3c2NC(=O)c2ccccc2C)cc1 | inconclusive: 0.126 µM [inhibitor, full curve, poor fit] |  | 
12 | COc1cccc(C(=O)N2CCC3(CC2)CC(N(Cc2ccccc2)C2CC2)CCO3)c1 (stereo not given) | inconclusive: 2 µM [inhibitor, partial curve, poor fit] |  | 
13 | COC(=O)CN1C(=O)[C@@H]2C[C@@H](O)CN2C2(CN(C3CCN(C)CC3)C2)C1=O |  | inactive: 20.6% [at 44.1 µM] | 
14 | O[C@H]1[C@H](NCC2CC2)[C@H]2CO[C@H](O2)[C@@H]1N1CCCCC1 | inconclusive: 39.8 µM [inhibitor, single point] |  | 
15 | O=C1CCC2(CCN(Cc3ccc4[nH]ccc4c3)CC2)CN1CCc1ccccc1 | active: 7.08 µM |  | 
16 | CC1CCN(CCCNC(=O)c2cc(Sc3ccc(F)cc3)nc3ccccc23)CC1 | inconclusive: 0.501 µM [inhibitor, full curve] |  | 
17 | CCc1ccc(CN(Cc2cn[nH]c2-c2ccc(OC)cc2)C(=O)Nc2ccc(C)c(F)c2)cc1 | inconclusive: 11.2 µM [inhibitor, single point] |  | 
18 | COc1cccc(CC(=O)N2CCC3(CC2)NC(=O)N(c2cccc(F)c2)N3)c1 |  | inactive: -15.9% | 
19 | COc1cccc(-c2ccccc2NC(=O)C2CCN(C/C(C)=C/c3ccccc3)CC2)c1 | active: 8.91 µM |  | 
20 | Cc1ccc2c(c1)NC(c1cccnc1)=NC(c1ccc(F)cc1)=N2 | inconclusive: 12.6 µM [inhibitor, partial curve, poor fit] |  | 
21 | Cc1n[nH]c(C)c1CNC(=O)C1CCN(c2cn[nH]c(=O)c2)C1 (stereo not given) |  | inactive: -3.88% | 
22 | CCNC(=O)N(C1CC1)C1CCOC2(CCN(C(=O)Nc3ccccc3F)CC2)C1 (stereo not given) |  | inactive: 20.1% | 
23 | O=C1CO[C@H]2CCN(Cc3ccccc3O)CC[C@@H]2N1Cc1ccccc1 | inconclusive: 6.31 µM [inhibitor, full curve, poor fit] |  | 
24 | Cc1ccc(CN2C(=O)C(O)(c3c[nH]c4ccccc34)c3cc(Cl)ccc32)cc1 (stereo not given) | inconclusive: 2.24 µM [inhibitor, full curve, poor fit] |  | 

Row | Compound | Potency | activity, negative = inhibition | outcome
25 | COc1ccc(C2c3c(-c4c(C)cc(C)cc4O)n[nH]c3C(=O)N2Cc2ccco2)cc1 (stereo not given) | inconclusive: 17.8 µM [inhibitor, single point] |  | 
26 | COc1ccc(-c2cn3cc(C(=O)N[C@@H](C)CO)nc3c(=O)n2CC2CC2)c(F)c1 | inconclusive: 10 µM [inhibitor, single point] |  | 
27 | COCC(=O)NC1CCC12CCN(S(=O)(=O)c1c(C)nn(C)c1C)CC2 (stereo not given) |  | inactive: -9.8% | 
28 | O=c1n(-c2cccc(Cl)c2)nc2n1CCN([S+](=O)([O-])c1cccc(C(F)(F)F)c1)C2 |  | inactive: 27% | 
29 | O=C(NCCCN1CCN(c2ccc(F)cc2)CC1)Nc1ccc(Cl)cc1 | inconclusive: 8.91 µM [inhibitor, single point] |  | 
30 | CCc1cc(=O)n(CC(=O)N2CCN(c3ccccc3F)CC2)c(N2CCOCC2)n1 | active: 7.94 µM |  | 
31 | Cc1cccc(-c2nocc2CCC(=O)NC(C)c2ccc(F)cc2)c1 (stereo not given) |  |  | inactive
32 | O=C(Cn1cccc1-c1nc(-c2ccccc2)no1)NCc1ccccc1Cl | active: 10 µM |  | 
33 | NCc1cccc(-c2cccc(Cl)c2)c1 | active: 12.6 µM |  | 
34 | CC(C)(C)C(=O)N1CCC2(C1)C(=O)N(CCc1ccccc1)c1ccccc12 (stereo not given) | inconclusive: 7.08 µM [inhibitor, partial curve, poor fit] and inconclusive: 14.1 µM [inhibitor, partial curve, poor fit] |  | 
35 | O=C(NC[C@H]1OC[C@@H](NC2CCC2)[C@@H]1O)c1cccs1 |  | inactive: -13.9% [at 44.1 µM] | 
36 | CC(C)CCNC(=O)c1cnc2n1CCN(Cc1ccncc1Cl)CC2 |  |  | inactive [at 44.1 µM]
37 | CNC(=O)[C@@H]1CN(C(=O)NCc2ccccc2)C[C@H]1c1nc(C)no1 |  | inactive: -9.89% | 
38 | COc1ccc(C(=O)c2cn(Cc3ccc(F)cc3)c3ccc(C)cc3c2=O)cc1 | inconclusive: 11.2 µM [inhibitor, single point] |  | 
39 | O=C1CCC2(CCN(C(=O)C3CCOCC3)CC2)CN1CCc1ccncc1 |  | inactive: -2.55% | 
40 | CCn1cnnc1CCNC(=O)c1cc(-c2ccc(C)cc2)nc2ccccc12 |  | inactive: -11.2% | 
41 | OC[C@@H]1CN(Cc2cccnc2)C[C@H]1c1ccncc1 |  |  | inactive
42 | O=C1NCCOCCCN(C(=O)c2ccsc2)[C@H]2CCCC[C@@H]12 | inconclusive: 3.55 µM [inhibitor, partial curve] |  | 
43 | COc1ccc(C(=O)COC(=O)c2cccc(NC(=O)c3ccc(OC)c(OC)c3)c2)cc1 | inconclusive: 10 µM [inhibitor, partial curve] |  | 
44 | CCC1(N2CCN(C(=O)Nc3ccc(Cl)cc3C)CC2)CCN(C(=O)NC)C1 (stereo not given) | inconclusive: 17.8 µM [inhibitor, single point] |  | 
45 | CCc1ccc(NC(=O)C2CCN(S(=O)(=O)c3ccc4[nH]c5c(c4c3)CCCCC5)CC2)cc1 | inconclusive: 12.6 µM [inhibitor, single point] |  | 
46 | O=C1CC(c2ccccc2)N(C(=O)CC2CCCC2)CCCCCN1 (stereo not given) | inconclusive: 6.31 µM [inhibitor, partial curve] |  | 
47 | CCCCNC(=O)CC(c1cccc([N+](=O)[O-])c1)c1c[nH]c2c(CC)cccc12 (stereo not given) | inconclusive: 11.2 µM [inhibitor, single point] |  | 
48 | COc1ccc(-c2cc3ccc(O)c(CN4CCOCC4)c3oc2=O)cc1 | active: 11.2 µM |  | 

Row | Compound | Potency | activity, negative = inhibition | outcome
49 | O=C(CN1CC2CC(C1)[C@H]1CCCC(=O)N1C2)NCc1cccc(C(F)(F)F)c1 (stereo not given in full) |  |  | inactive
50 | Cc1cccc(NC(=O)c2nc(S(C)(=O)=O)ncc2Cl)c1 |  | inconclusive: -144% [inhibitor] [at 5.79 µM] | 
51 | Cc1ccc2cc(CCC(=O)NCc3cccs3)c(=O)[nH]c2c1 |  | inactive: -17.5% | 
52 | CCc1ccccc1S(=O)(=O)N1C[C@@H]2C(=O)N(C(CC)c3cccs3)C(=O)[C@@H]2C1 (stereo not given in full) | inconclusive: 20 µM [inhibitor, single point] |  | 
53 | O=C(c1ccccc1)N1CC2(CCCCN2Cc2cccnc2)Cc2ccccc21 (stereo not given) | active: 10 µM |  | 
54 | Cc1nc(N2CCC(NC(=O)Cc3ccccc3Cl)CC2)cc(C(F)(F)F)n1 |  | inactive: -3.21% | 
55 | COc1cccc(N2CC3(CN(CCOc4ccccc4)C(=O)O3)C2)c1 |  | inactive: 16.1% [at 44.1 µM] | 
56 | CCOc1ccc2nc(C)cc(Nc3ccccc3OCC)c2c1 | inconclusive: 17.8 µM [inhibitor, single point] |  | 
57 | O=C([C@@H]1C[C@H](Oc2cccnc2)CN1C(=O)NCCc1ccccc1)N1CCOCC1 | inconclusive: 0.251 µM [inhibitor, full curve, poor fit] |  | 
58 | Cc1ccc(C(=O)O)cc1Nc1nc2ccccc2n2nnnc12 | inconclusive: 8.91 µM [inhibitor, single point] |  | 
59 | CCOCCCNC(=O)N1CCC(Cc2nc(-c3ccncc3)n[nH]2)CC1 |  |  | inactive
60 | Cn1cc(S(=O)(=O)N2CCCCCC2)cc1C(=O)N1CCN(c2cccc(Cl)c2)CC1 |  | inactive: -25.4% | 
61 | O=C(C1CC(=O)N(C2CC2)C1)N1CCC(Oc2ccccc2Cl)CC1 (stereo not given) |  |  | inactive
62 | CCOC(=O)C1CCN(C(=O)C2CCN(C3=NS(=O)(=O)C(c4ccc(C)cc4)=C3CC)CC2)CC1 | active: 11.2 µM |  | 
63 | O=C(CN1C(=O)NC2(CCOCC2)C1=O)Nc1ccc2c(c1)OCO2 |  | inactive: 33.1% | 
64 | COc1ccc(NC(=O)N2CCC(Oc3ncccc3C(=O)N3CCOCC3)C2)c(C)c1 (stereo not given) |  | inactive: 85.1% | 
65 | O=C(c1ccc(C(F)(F)F)cc1)N1CCC(c2nn(Cc3ccccc3)c(=O)[nH]2)CC1 | inconclusive: 15.8 µM [inhibitor, single point] |  | 
66 | CC(C)CCNC(=O)N1c2ccccc2CC1c1noc(C2CCOCC2)n1 (stereo not given) | inconclusive: 17.8 µM [inhibitor, single point] |  | 
67 | Cc1noc(-c2cccs2)c1C(=O)NC(C)CCc1ccccc1 (stereo not given) | inconclusive: 0.251 µM [inhibitor, partial curve, poor fit] |  | 
68 | O=c1ccc(-c2cc(-c3cccc4cn[nH]c34)cn3cncc23)c[nH]1 |  |  | inactive [at 44.1 µM]
69 | O=C(CCC1CCN(C(=O)c2ccccc2F)CC1)NC1CC1 |  | inactive: -15.2% | 
70 | Cc1cc(Cl)ccc1-n1nc(C)c([C@@H]2C=C[C@@H](NC(=O)CCCC(=O)O)C2)c1C | inconclusive: 11.2 µM [inhibitor, partial curve, poor fit] |  | 
